Results taken from publication PMC12040169 (PLOS Biology, 2025).
The other results are listed elsewhere or left out.

What follows are compounds tested on T1, C. trachomatis L2/434/Bu expressing GFP (CTL2-GFP). Conditions: total inclusion area; 28.5 h, 10 µM; inhibitor.
T1 construct: L2/434/Bu GFP intracellular growth in HeLa cells
Parameters: species or system HeLa; C. trachomatis total inclusion area by high-content imaging, normalised to DMSO
Outline: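 High-content imaging followed the bulk GFP/resorufin measurement: fixed, Hoechst-stained cells were scored for GFP inclusions and host nuclei per well. Total inclusion area and count served as growth proxies, nuclei number as the viability proxy. MIC calculation matched the bulk assay.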

Structure (SMILES) | % of control remaining
O=C(NCC(CN1CCOCC1)([N+](=O)[O-])[N+](=O)[O-])c1ccccc1 [CBK261339] | 101.29
Cc1ccc(OCC(=O)Nc2cccc3nsnc23)c(C)c1 [CBK263816] | 97.8487
COc1ccc(OC)c(S(=O)(=O)N2CCC(C(=O)O)CC2)c1 [CBK266835] | 104.57
C=CCn1c(SCC(=O)N2c3ccccc3C(C)(c3ccccc3)CC2(C)C)nnc1-c1ccncc1 (centres unmarked) [CBK059171] | 93.2394
COC(=O)c1c(NC(=O)Cn2nc([N+](=O)[O-])c(Cl)c2C)sc2c1CCCC2 [CBK263047] | 101.221
COc1ccc(Cl)cc1CN(C)C(=O)c1cnn2cc(CCO)cnc12 [CBK307236] | 60.0949
CCOC(=O)C1CCN(CC(=O)Nc2ccc(S(N)(=O)=O)cc2)CC1 [CBK266118] | 125.834
CC(Oc1nccnc1OCc1ccc(Cl)c(Cl)c1)c1ccncc1 (centres unmarked) [CBK161609] | 72.3538
O=[N+]([O-])c1ccc(C2CNC(c3ccccc3O)O2)cc1 (centres unmarked) [CBK262298] | 104.494
O=C(C1CC(O)CN1)N1CC2(CCCC2)c2c(F)cccc21 (centres unmarked) [CBK304269C] | 85.795
O=C(C1=Cc2ccccc2OC1)N1CCn2cc(C(F)(F)F)nc2C1 [CBK283913] | 92.8101
Cn1cc(/C=C(\C(=O)O)C(C(=O)O)=C2C3CC4CC(C3)CC2C4)c2ccccc21 [CBK263749] | 96.4042
OCc1ccccc1-c1cn2ccnc2c(Nc2ccc(N3CCOCC3)cc2)n1 [CBK037956] | 94.4876
CCOC(=O)c1c(N)sc2c1CC(c1ccccc1)SC2c1ccccc1 (centres unmarked) [CBK293955] | 98.4081
OC1(c2cccnc2)CCCC2CN(Cc3ccc(F)c(F)c3)CC21 (centres unmarked) [CBK284511] | 62.8372
CN1CCN(C(=O)c2ccc(-c3cnc(N)c(-c4ccc(O)cc4)n3)cc2F)CC1 [CBK200421] | 87.6216
O=C(Nc1nc2ccc(Br)cc2s1)C1CC1 [CBK026046] | 88.0489
COCCCn1c(=O)[nH]c2ncc(-c3ccco3)nc21 [CBK064449] | 99.3043
Cc1ncccc1C(=O)NC(Cc1cccs1)c1nccs1 (centres unmarked) [CBK285153] | 72.885
O=C(c1cccc(S(=O)(=O)Nc2ccccn2)c1)N1CCCc2ccccc21 [CBK269645] | 92.4375
Cc1c(C(=O)C2=C(O)C(=O)N(CCCN(C)C)C2c2cccnc2)cnn1-c1ccccc1 (centres unmarked) [CBK269312] | 101.735
COc1cc(C2CN=NC23Cc2ccccc2C3=O)cc(OC)c1OC (centres unmarked) [CBK019341] | 76.8255
O=C(c1ccccc1)N1CCCC1c1n[nH]cc1-c1ccncc1 (centres unmarked) [CBK283433] | 102.049
CCOC(=O)Cn1nc(CC)c(Cc2c(Cl)cccc2Cl)c1C [CBK113222] | 102.954
COc1ccc(NC(=O)c2cnc(-c3ccc(Cl)cc3)c(-c3ccc(C(C)=O)s3)c2)cn1 [CBK036643] | 94.4642

Structure (SMILES) | % of control remaining
COc1ccc(C(NC(=O)C2CCN(C(=O)NC(C)(C)C)CC2)c2ccccn2)cc1 (centres unmarked) [CBK060298] | 77.0994
C=C1C2(C(=O)NCCn3nc(C)c(Cl)c3C)CCC(C2)C1(C)C (centres unmarked) [CBK281661] | 109.525
COC(=O)c1cccc2c1[nH]c1ccccc12 [CBK001709] | 99.4123
O=S(=O)(Nc1ccc2nsnc2c1)c1ccc(F)cc1 [CBK051010] | 83.218
Cc1cccc(CC(=O)N2CCCC2c2ccnc3cc(C)nn23)c1 (centres unmarked) [CBK283472] | 60.0892
CCC(NC(=O)c1csc2c1CCCC2)c1ccccc1 (centres unmarked) [CBK059006] | 88.0075
CC(C(=O)N1CCC(C(=O)c2nccs2)CC1)c1ccccc1 (centres unmarked) [CBK284163] | 89.074
CC1=C[C@@H](CNS(=O)(=O)c2ccccc2)[C@H](C(C)C)C[C@H]1CC(=O)N1CCOCC1 [CBK289049] | 110.713
O=C(NCC1CCCN1)c1ccccc1Nc1cccc(C(F)(F)F)c1 (centres unmarked) [CBK115916C] | 50.7344
Clc1ccc(-c2cc(CN3CCCCC3)no2)cc1Cl [CBK018435] | 116.828
COc1ccccc1-c1cnc2[nH]c(=O)n(CC(C)(C)CO)c2n1 [CBK064690] | 86.0552
Cc1cc(Cl)c(S(=O)(=O)Nc2cccnc2)cc1OCC(=O)NC1CCCCC1 [CBK266773] | 98.3064
CC(C)(C(=O)N1CCC(C(=O)NCCc2c[nH]c3ccccc23)C1)c1ccc(F)cc1 (centres unmarked) [CBK286034] | 113.42
CC(C)(C)OC(=O)NCc1ccc(CNCc2cc(F)cc(F)c2)cc1 [CBK056707] | 78.0498
Cc1ccc(S(=O)(=O)N2CCN(Cc3cc(Br)ccc3O)CC2)cc1 [CBK264242] | 131.021
CC(C)NC(=O)N1Cc2nc[nH]c2C[C@H]1c1nc(-c2ccc(F)c(Cl)c2)no1 [CBK288999] | 125.045
OC1(c2ccc(F)cc2)CC2CCC(C1)N2Cc1ccccn1 (centres unmarked) [CBK283490] | 73.7361
CCn1cc(C(=O)N2CCC(Oc3ccccc3C)(C(=O)O)CC2)cn1 [CBK306699] | 112.805
CCCOc1ccc(N2C(=O)CC(N3CCC(C(=O)O)CC3)C2=O)cc1 (centres unmarked) [CBK287235] | 86.5871
O=C(O)Cc1ccc(NC(=O)C2Cc3ccccc3C(=O)O2)cc1 (centres unmarked) [CBK269406] | 88.6432
CC(NC(=O)/C(=C\c1ccccc1)NC(=O)c1ccc(Br)o1)C(=O)O (centres unmarked) [CBK264934] | 79.3601
CC(=O)Nc1nc2ccc(S(C)(=O)=O)cc2s1 [CBK287336] | 94.3583
COc1ccccc1CNS(=O)(=O)c1ccccc1[N+](=O)[O-] [CBK261699] | 91.818
Cc1ccccc1CSCC(=O)N1CCN(c2ccccc2)CC1 [CBK058577] | 121.433
O=C(O)c1nccnc1-c1ccc(COc2ccccc2)cc1 [CBK050806] | 88.7569
